# In article PMC4336329 (PLoS ONE, 2015):
# Screen size: about 310,000 compounds; about 14,000 (4.5%) showed an effect of 50% or more. Effects have a minus sign here. The list shows a part of the results.
# Target: human ether-à-go-go-related gene (hERG) potassium channel (human, UniProt Q12809)
# Assay: primary screen, population patch clamp on CHO cells stably expressing hERG
# 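Note: peak tail current of the secondary pulse compared with the same well before compound.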
# Sequence of human ether-à-go-go-related gene (hERG) potassium channel (Q12809 whole entry, looked up): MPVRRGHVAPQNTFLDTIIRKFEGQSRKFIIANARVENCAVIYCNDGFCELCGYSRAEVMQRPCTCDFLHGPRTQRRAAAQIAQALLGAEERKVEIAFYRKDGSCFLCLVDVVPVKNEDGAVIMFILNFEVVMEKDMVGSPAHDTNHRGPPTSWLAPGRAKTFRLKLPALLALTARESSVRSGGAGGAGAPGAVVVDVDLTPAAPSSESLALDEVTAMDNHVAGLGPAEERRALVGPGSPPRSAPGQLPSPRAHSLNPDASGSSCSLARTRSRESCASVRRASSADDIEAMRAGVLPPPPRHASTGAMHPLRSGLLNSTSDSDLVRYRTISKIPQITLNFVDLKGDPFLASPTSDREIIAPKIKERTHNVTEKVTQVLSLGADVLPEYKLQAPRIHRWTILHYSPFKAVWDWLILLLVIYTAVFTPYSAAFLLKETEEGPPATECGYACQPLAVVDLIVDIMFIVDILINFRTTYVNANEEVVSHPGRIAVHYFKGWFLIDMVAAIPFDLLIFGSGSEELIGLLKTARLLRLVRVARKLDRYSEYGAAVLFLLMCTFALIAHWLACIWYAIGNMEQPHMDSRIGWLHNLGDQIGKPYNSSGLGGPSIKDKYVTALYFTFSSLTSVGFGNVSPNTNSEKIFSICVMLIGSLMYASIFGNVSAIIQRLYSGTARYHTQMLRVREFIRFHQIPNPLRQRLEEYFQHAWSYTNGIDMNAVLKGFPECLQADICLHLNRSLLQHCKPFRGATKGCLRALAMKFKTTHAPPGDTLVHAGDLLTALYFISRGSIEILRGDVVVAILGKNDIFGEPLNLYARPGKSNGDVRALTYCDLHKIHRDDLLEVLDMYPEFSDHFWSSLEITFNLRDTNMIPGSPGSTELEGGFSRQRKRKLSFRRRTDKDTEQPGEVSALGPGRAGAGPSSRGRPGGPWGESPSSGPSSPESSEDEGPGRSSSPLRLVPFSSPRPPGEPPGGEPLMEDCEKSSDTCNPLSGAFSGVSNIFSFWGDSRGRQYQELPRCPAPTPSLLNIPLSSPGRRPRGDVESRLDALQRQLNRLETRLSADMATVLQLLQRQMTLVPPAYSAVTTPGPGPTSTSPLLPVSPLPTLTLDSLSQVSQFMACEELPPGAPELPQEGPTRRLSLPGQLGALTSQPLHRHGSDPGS
row,Structure (SMILES),"hERG current change (%, negative = inhibition) at 10uM"
1,COC(=O)C1CCC(=S)N1C(=O)c1ccccc1 (stereo not shown),11.7%
2,COc1ccc(NCc2ccc([N+](=O)[O-])s2)cc1,-13.6%
3,Cc1nc(/N=C(\N)NC(=O)NC2CCCCC2)nc2ccccc12,-21%
4,Cc1nc(S/C(=C/c2ccc(OCc3ccc(C(=O)O)cc3)cc2)C(=O)O)n[nH]1,22.6%
5,O=C(N/N=C/c1c[nH]c2ccccc12)c1cc(Br)ccc1O,8.48%
6,CC(C(=O)N1CCCCCC1)N(c1ccc(Cl)cc1)S(C)(=O)=O (stereo not shown),22%
7,COc1cccc(CN2C(=O)CCC2(C)C(=O)NC2CCCC2)c1 (stereo not shown),2.48%
8,CC1CCN(CCC(=O)Nc2ccc(Br)cc2)CC1.Cl,-54.6%
9,COc1ccc(Cl)cc1NC(=O)C1CC(=O)N(c2ccc(F)cc2)C1 (stereo not shown),4.41%
10,NC(=O)C1CCCN(C(=O)NC2CCCCC2)C1 (stereo not shown),-2.48%
11,COc1ccc2cc(C(c3nnnn3C3CCCC3)N3CCCCCC3)c3nnnn3c2c1 (stereo not shown),15.9%
12,COCCn1c(-c2ccco2)csc1=Nc1cccnc1.Cl,-3.9%
13,CC(Oc1ccc(Cl)cc1)C(=O)Nc1ccccc1C(=O)N1CCOCC1 (stereo not shown),-13.5%
14,COc1ccc(C(=O)c2ccc(CC(=O)O)s2)cc1,7.57%
15,Nc1ccc(C(=O)N/N=C\C=C\c2cccc([N+](=O)[O-])c2)cc1,7.97%
16,CCOC(=O)CSc1nnc(COc2cccc(C)c2)o1,0.751%
17,Cc1ccc(-c2nnn(CC(=O)N(c3ccccc3F)C(C(=O)NC3CCCC3)c3ccco3)n2)o1 (stereo not shown),2.59%
18,CC(NC(=O)c1cccc(F)c1)C(c1cccs1)N1CCN(C)CC1 (stereo not shown),2.52%
19,Cc1cccc(C(=O)NC(NCc2ccco2)C(Cl)(Cl)Cl)c1 (stereo not shown),0.591%
20,Cc1cccc(N(C)C(=O)c2coc(=O)c3ccccc23)c1,13.1%
21,O=C(NCc1ccc2c(c1)OCO2)c1nnc(Cc2ccc(F)cc2)o1,-1.56%
22,C/C(=N\Nc1ccc(Cl)c(C(=O)O)c1)c1ccc(N2CCOCC2)cc1,8.13%

row,Structure (SMILES),"hERG current change (%, negative = inhibition) at 10uM"
1,Cc1ccc(/C=C/C(=O)Nc2ccc(O)c3c(=O)cc(-c4ccccc4Cl)oc23)cc1,10.5%
2,OCc1ccc(-c2nn(Cc3ccccc3)c3ccccc23)o1,-7.85%
3,CCc1ccc(C2c3[nH]c4ccccc4c3CCN2C(=O)c2cc[n+]([O-])cc2)cc1 (stereo not shown),-4.19%
4,Cc1ccc2nc(N3CCN(C(=O)c4ccco4)CC3)c3nncn3c2c1,-16%
5,Cc1cc(N2CCCC2=O)ccc1S(=O)(=O)NCCOc1ccccc1,1.37%
6,CCC(=O)Nc1ccccc1-c1nnn(CC(=O)N2c3ccccc3CC2C)n1 (stereo not shown),4.52%
7,O=C1CNC(=S)N1C1CCCCCC1,15.5%
8,C=CCCN(C(C(=O)OC)C(C)C)S(=O)(=O)c1ccccc1Br (stereo not shown),-2.3%
9,CCC(=O)Nc1nc(-c2cc([N+](=O)[O-])cs2)cs1,10.3%
10,Cc1ccc(S(=O)(=O)N(C)c2ccc(N)cc2)cc1,-4.15%
11,COc1ccc(CNC(=O)c2csnn2)cc1,-29.1%
12,Cc1ccc2[nH]c(=O)c(-c3nc4ccccn4c3NCc3ccco3)cc2c1,-12.3%
13,CCN(CC)S(=O)(=O)c1cccc(NC(=O)c2cc(-c3cccs3)nn2-c2ccccc2)c1,19.4%
14,COc1ccccc1-n1cnnc1SCC(=O)Nc1cccnc1Cl,0.462%
15,COc1ccc(/C=C(/NC(=O)c2ccccc2)C(=O)N/N=C/c2cccs2)cc1OC,12.9%
16,O=C(Nn1nnnc1Nc1ccccc1)C12CC3CC(CC(C3)C1)C2,7.46%
17,O=C1CSC(c2ccc(Cl)cc2Cl)N1c1ccccn1 (stereo not shown),26%
18,OC1(c2cccc(C(F)(F)F)c2)CCN(c2ccc(-c3ccccc3)nn2)CC1,6.04%
19,Cc1ccc(CCNC(=O)C2CCC(=O)N2Cc2ccc(F)cc2)cc1 (stereo not shown),6.62%
20,COc1ccc(-c2c(C)nc3c(-c4ccc(F)cc4)cnn3c2N)cc1,22.8%
21,O=C(c1ccccn1)c1ncc(C(F)(F)F)cc1Cl,17.7%
22,CCCn1c(=NC(=O)CS(=O)(=O)c2ccccc2)sc2cc(S(C)(=O)=O)ccc21,-4.48%

row,Structure (SMILES),"hERG current change (%, negative = inhibition) at 10uM"
1,CC(C)n1c(N2CCN(C(=O)Nc3ccccc3)CC2)nc2ccccc21,-14.6%
2,COc1ccc(C(=O)c2cn[nH]c2-c2cc(Cl)ccc2O)cc1,-16%
3,CS(=O)(=O)N1CCN=C1SCc1ccc(F)cc1,14.7%
4,CCNC(=O)COC(=O)CCNC(=O)c1ccc(Cl)cc1,23.9%
5,CC(=O)Nc1cccc(-c2nc3ccc(NC(C)=O)cc3s2)c1,-1.41%
6,O=C(CCc1nnc(CCCCc2ccccc2)o1)N1CCN(CCO)CC1,-0.0459%
7,CN(C)CCCO/N=C(\c1ccccc1)c1ccncc1.O=C([O-])C(=O)[O-],5.25%
8,O=S(=O)(Nc1nc2ccccc2nc1Nc1ccc2c(c1)OCO2)c1ccccc1,8.88%
9,COc1ccccc1C(=O)N/N=C(\C)CC(=O)Nc1ccc(Nc2ccccc2)cc1,-4.31%
10,COc1ccc(-c2cc(C(=O)Nc3c(C)nn(Cc4ccc(Cl)cc4)c3C)no2)cc1,-6.89%
11,COCCn1c(-c2cccs2)nc2nc3ccccc3nc21,-11.2%
12,CCCC[C@@H]1C[C@H]1[C@@H](NC(=O)c1ccccc1)c1ccccc1C(F)(F)F,3.61%
13,Cc1ccc(-n2ncc3c(NCCCN4CCOCC4)ncnc32)c(C)c1,-10.3%
14,O=C(CC(NCCN1CCOCC1)C(=O)O)Nc1cccc(Cl)c1 (stereo not shown),26%
15,Cc1ccccc1C(=O)NC(=S)Nc1ccc(N2CCOCC2)cc1,27.8%
16,COC(=O)c1sc(NC(C)=O)c(C(=O)OC)c1C,-0.0772%
17,O=C(Nc1cc(C(F)(F)F)ccc1N1CCOCC1)c1ccc(F)cc1,5.04%
18,CC(=O)C1=NN(c2ccccc2)C(c2cccs2)N1c1ccc(N(C)C)cc1 (stereo not shown),-2.44%
19,O=C(CS(=O)(=O)c1cn(Cc2cccc(F)c2)c2ccccc12)N1CCCCC1,-6.94%
20,O=C(O)/C=C/C(=O)Nc1cccc(C(F)(F)F)c1,7.79%
21,C=C1CCC[C@]2(C)C[C@H]3OC(=O)C(CN4CCOCC4)[C@H]3C[C@@H]12 (stereo partly shown),17.7%
22,O=[N+]([O-])c1cc(S(=O)(=O)N2CCOCC2)ccc1OCc1cccc(Cl)c1,1.31%

row,Structure (SMILES),"hERG current change (%, negative = inhibition) at 10uM"
1,Cc1ccc(S(=O)(=O)NCC2CCC(C(=O)N3CCC4(CC3)OCCO4)CC2)cc1 (stereo not shown),-10.5%
2,CCOC(=O)Cc1csc(NC(=O)/C=C/c2ccc(Br)o2)n1,-23.1%
3,CCOc1ccc(NC(=O)NC(=O)N(C(C)C)S(C)(=O)=O)cc1,18.2%
4,Cc1cc(/C=C2/NC(=O)N(Cc3ccccc3F)C2=O)c(C)n1C(C)C,-0.289%
5,C1CN(c2nc3nonc3nc2N2CCSCC2)CCO1,-2.02%
6,CC(C)C(NC(=O)c1ccccc1)C(=O)NC1CCCc2ccccc21 (stereo not shown),15%
7,COCCCNC(=O)c1ccc(-c2nc3ccccc3nc2-c2ccccc2)cc1,0.599%
8,CCc1ccc2nc(-c3cccc(C)c3)nc(SCC(=O)NCC3CCCO3)c2c1 (stereo not shown),-5.79%
9,CCN(CC)S(=O)(=O)c1cc([N+](=O)[O-])ccc1N1CCC(C(N)=O)CC1,-15.1%
10,CC(C)COP(=O)(OCC(C)C)C(O)c1ccc(N(C)C)cc1 (stereo not shown),13.9%
11,COc1ccc(N2C(=O)CS/C2=C\[N+](=O)[O-])cc1,8.52%
12,Cn1nnc(NC(=O)c2ccc3ccccc3c2)n1,5.99%
13,Cc1cc(C)c2nc(N3CCCN(C(=O)c4cnccn4)CC3)c(C#N)cc2c1,-38.5%
14,N#Cc1ccc(CSc2nnc(-c3cccc(S(=O)(=O)N4CCCCC4)c3)o2)cc1,-2.65%
15,CCCCNC(=O)c1ccc(CS(=O)(=O)Cc2ccccc2F)o1,-3.6%
16,COc1ccc(OC)c(/C=C/C(=O)N(C)CC(=O)Nc2ccc(N3CCOCC3)cc2)c1,-8.78%
17,Cc1cccc(OCC(=O)Nc2cccc(C(=O)Nc3ccccc3C(=O)O)c2)c1,8.81%
18,COc1cccc(CC(NC(C)=O)C(=O)NC2CCN(S(=O)(=O)c3ccc(NC(C)=O)cc3)CC2)c1 (stereo not shown),19.1%
19,Cc1nn(C)cc1CNC(=O)C1C2CCC(C2)C1C(=O)O (stereo not shown),21.1%
20,CN1CCN(c2ccc([N+](=O)[O-])cc2C(=O)c2ccccc2)CC1,-54.2%
21,CC(C)NC(=O)c1ccc(C2SCC(=O)N2Cc2ccccc2)cc1 (stereo not shown),0.739%
22,Cn1cccc1C(=O)NC(=O)COC(=O)c1cc(Cl)ccc1[N+](=O)[O-],-6.64%
